For eight molecules, binding results are on record in publication PMC10162974.

Residue numbers refer to the chain shown, from its start. In names and notes the source's numbering stands. No constants are given. Whether binding was seen depends on the method and setting. In cells and extracts the contact can be indirect. Some results given as binding are weak or reduced against the parent protein; the word gives no strength. Tags and fused reporters may be left off the sequences shown.

In assay [1] the target is Yop1p-HA I126C (S. cerevisiae) (UniProt Q12402). Kind of assay: cross-linking; disulfide cross-linking of single-Cys Yop1p-HA in yeast microsomal membrane fractions, 1 mM copper-o-phenanthroline (Cu:Phe), 30 min, room temperature; 100 mM DTT as reduced control; non-reducing SDS-PAGE, anti-HA blot.
In assay [2] the target is Yop1p-HA L49C (S. cerevisiae) (UniProt Q12402). The description is as above.
The target of assay [3] is Yop1p-HA L100C (S. cerevisiae) (UniProt Q12402). Described as above.
Assay [4] deals with Yop1p-HA F99C (S. cerevisiae) (UniProt Q12402). The description is as above.
In assay [5] the target is Yop1p-HA W118C (S. cerevisiae) (UniProt Q12402). Kind of assay: cross-linking; disulfide cross-linking of Cys mutants of Yop1p-HA (F116C, W118C, double mutants) upon oxidation; oxidant not named for these panels.
Assay [6] concerns the target Yop1p-HA F97C (S. cerevisiae) (UniProt Q12402). Kind of assay: cross-linking; disulfide cross-linking of single-Cys Yop1p-HA in yeast microsomal membrane fractions, 1 mM copper-o-phenanthroline (Cu:Phe), 30 min, room temperature; 100 mM DTT as reduced control; non-reducing SDS-PAGE, anti-HA blot.
Assay [7] deals with Yop1p-HA L125C (S. cerevisiae) (UniProt Q12402). The description is as above.
Assay [8] deals with Yop1p-HA S2C (S. cerevisiae) (UniProt Q12402). The experiment in a line: cross-linking; disulfide cross-linking of single-Cys Yop1p-HA (cytosolic regions) in yeast microsomal membrane fractions, oxidation by 2 mM diamide, 30 min, room temperature; anti-HA blot.

B1: Yop1p-HA I126C (protein, UniProt Q12402 1-180)
chain: MSEYASSIHSQMKQFDTKYSGNRILQQLENKTNLPKSYLVAGLGFAYLLLIFINVGGVGEILSNFAGFVLPAYLSLVALKTPTSTDDTQLLTYWIVFSFLSVIEFWSKAILYLIPFYWFLKTVFLCYIALPQTGGARMIYQKIVAPLTDRYILRDVSKTEKDEIRASVNEASKATGASVH
Take B1: the binding entry in assay [1] is “binds”.

B2: Yop1p-HA L49C (protein, UniProt Q12402 1-180)
chain: B1 chain with L49C, C126I
Regarding B2, the binding result in assay [2] was “no binding”.

B3: Yop1p-HA L100C (protein, UniProt Q12402 1-180)
chain: B1 chain with L100C, C126I
With B3, the binding entry in assay [3] is “binds weakly”.

B4: Yop1p-HA F99C (protein, UniProt Q12402 1-180)
chain: B1 chain with F99C, C126I
In the case of B4, the binding result in assay [4] is on record as “binds weakly”.

B5: Yop1p-HA W118C (protein, UniProt Q12402 1-180)
chain: B1 chain with W118C, C126I
Turning to B5, in assay [5], the binding result is listed as “no binding”.

B6: Yop1p-HA F97C (protein, UniProt Q12402 1-180)
chain: B1 chain with F97C, C126I
Consider B6, for which the binding entry in assay [6] is reported as “binds weakly”.

B7: Yop1p-HA L125C (protein, UniProt Q12402 1-180)
chain: B1 chain with L125C, C126I
Take B7: in assay [7], the binding entry was “no binding”.

B8: Yop1p-HA S2C (protein, UniProt Q12402 1-180)
chain: B1 chain with S2C, C126I
In the case of B8, in assay [8], the binding result is given as “no binding”.
